According to PMC9117617:
No constants are given. Whether binding was seen depends on the method and setting. For some assays here: In cells and extracts the contact can be indirect. Some entries that bind do so weakly or less than the wild type. Tags and fused reporters may be left off the sequences shown. Values belong to the substance of their own block, whether it stands above or below them.

Protein sequences, listed by entry. Tags and fused reporters are not part of them.
UniProt Q9Y2L8: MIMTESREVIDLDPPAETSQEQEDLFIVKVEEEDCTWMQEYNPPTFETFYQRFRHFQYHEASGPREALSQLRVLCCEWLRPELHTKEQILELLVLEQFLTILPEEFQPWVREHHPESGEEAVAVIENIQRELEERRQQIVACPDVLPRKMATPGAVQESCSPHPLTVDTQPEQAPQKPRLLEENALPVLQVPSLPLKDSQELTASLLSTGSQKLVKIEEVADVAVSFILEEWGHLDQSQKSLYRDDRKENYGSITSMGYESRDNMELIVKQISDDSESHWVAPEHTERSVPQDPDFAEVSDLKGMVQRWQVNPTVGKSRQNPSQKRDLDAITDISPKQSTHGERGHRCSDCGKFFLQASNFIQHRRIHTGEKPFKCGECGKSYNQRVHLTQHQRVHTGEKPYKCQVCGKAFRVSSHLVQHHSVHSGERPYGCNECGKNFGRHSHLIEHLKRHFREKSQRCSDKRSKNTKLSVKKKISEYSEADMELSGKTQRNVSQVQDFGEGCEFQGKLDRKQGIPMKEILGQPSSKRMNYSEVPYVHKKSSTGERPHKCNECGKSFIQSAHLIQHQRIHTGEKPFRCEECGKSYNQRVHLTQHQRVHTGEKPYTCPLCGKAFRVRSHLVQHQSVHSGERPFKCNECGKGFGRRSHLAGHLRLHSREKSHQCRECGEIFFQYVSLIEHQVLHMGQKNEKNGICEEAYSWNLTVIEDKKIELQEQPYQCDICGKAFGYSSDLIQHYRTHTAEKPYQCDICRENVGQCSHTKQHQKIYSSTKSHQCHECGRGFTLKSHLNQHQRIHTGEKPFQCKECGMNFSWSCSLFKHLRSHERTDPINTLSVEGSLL

Tests used:
GST-SETD7 = molecular target: T1, GST-SETD7 (UniProt Q8WTS6); test: pull-down; GST pull-down: purified His or GST fusion proteins bound to GST beads, co-incubated at 4°C for 4 h with protease inhibitors; Western blot; both purified
T1 sequence: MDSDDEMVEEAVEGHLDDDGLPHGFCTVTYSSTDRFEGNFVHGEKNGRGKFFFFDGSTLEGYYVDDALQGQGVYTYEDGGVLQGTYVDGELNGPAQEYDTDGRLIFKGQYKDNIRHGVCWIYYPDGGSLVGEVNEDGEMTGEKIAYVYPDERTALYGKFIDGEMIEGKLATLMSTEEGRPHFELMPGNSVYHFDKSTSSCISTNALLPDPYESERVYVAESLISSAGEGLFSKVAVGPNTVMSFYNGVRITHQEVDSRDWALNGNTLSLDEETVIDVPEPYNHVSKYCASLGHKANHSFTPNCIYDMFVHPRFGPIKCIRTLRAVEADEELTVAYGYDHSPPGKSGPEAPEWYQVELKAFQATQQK

[1] = molecular target: T2, histone methyltransferase SETD7, endogenous (human (endogenous in ZR75-1)) (UniProt Q8WTS6); test: co-IP; endogenous proteins in ZR75-1 cell lysate (sonicated); antibodies at 4°C overnight, Protein A Agarose; Western blot; reciprocal
T2 sequence: T1 sequence

[2] = molecular target: T3, FLAG-tagged SET7 (108–214), middle-region fragment (UniProt Q8WTS6); test: co-IP; HEK293T cells co-transfected with a MYC-tagged and a FLAG-tagged construct; anti-FLAG immunoprecipitation of cell lysates, immunoblot
T3 sequence: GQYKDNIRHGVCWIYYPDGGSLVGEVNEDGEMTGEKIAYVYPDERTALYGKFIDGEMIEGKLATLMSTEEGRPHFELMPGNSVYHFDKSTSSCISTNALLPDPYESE

[3] = molecular target: T4, FLAG-tagged SET7 N-terminal region (1–107) (UniProt Q8WTS6); test: as above
T4 sequence: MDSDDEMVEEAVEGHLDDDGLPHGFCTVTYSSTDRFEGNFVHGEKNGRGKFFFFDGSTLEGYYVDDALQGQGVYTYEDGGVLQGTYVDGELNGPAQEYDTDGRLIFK

[4] = molecular target: T5, FLAG-tagged SET7 (215–366), SET domain-containing fragment (UniProt Q8WTS6); test: as above
T5 sequence: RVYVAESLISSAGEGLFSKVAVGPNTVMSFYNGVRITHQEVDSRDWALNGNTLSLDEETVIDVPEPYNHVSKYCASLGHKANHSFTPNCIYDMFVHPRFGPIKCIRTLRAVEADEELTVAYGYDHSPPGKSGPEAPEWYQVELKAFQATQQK

binding (GST-SETD7): binds
Substance: His-tagged ZKSCAN5 (from UniProt Q9Y2L8 1-839)

binding [1]: binds
Substance: zinc finger with KRAB and SCAN domains 5 (ZKSCAN5), endogenous (from UniProt Q9Y2L8 1-839)

binding [2]: no binding
binding [3]: no binding
binding [4]: binds
Substance: MYC-tagged ZKSCAN5 (from UniProt Q9Y2L8 1-839)
